# Substitutions are numbered along the chain they refer to; changes in the protein carry UniProt numbers. The list shows a part of the results.
# B1: AAACCAC (DNA:RNA)
# RNA: GGGAGACCGGAAUUCAGAUUGUCCAAACCACUUAAAUCCCGUCGUAGCCACCA
# DNA 1: CAATCTGAATTCCGGTCTCCC
# DNA 2: TGGTGGCTACGACGGGATT
# B2: UAGGUCC (DNA:RNA)
# RNA: B1 RNA with A25U, A27G, C28G, C29U, A30C
# DNA 1: CAATCTGAATTCCGGTCTCCC
# DNA 2: TGGTGGCTACGACGGGATT
# B3: GGAAUGA (DNA:RNA)
# RNA: B1 RNA with A25G, A26G, C28A, C29U, A30G, C31A
# DNA 1: CAATCTGAATTCCGGTCTCCC
# DNA 2: TGGTGGCTACGACGGGATT
# B4: CCAUACA (DNA:RNA)
# RNA: B1 RNA with A25C, A26C, C28U, C29A, A30C, C31A
# DNA 1: CAATCTGAATTCCGGTCTCCC
# DNA 2: TGGTGGCTACGACGGGATT
# B5: CCAUAGC (DNA:RNA)
# RNA: B1 RNA with A25C, A26C, C28U, C29A, A30G
# DNA 1: CAATCTGAATTCCGGTCTCCC
# DNA 2: TGGTGGCTACGACGGGATT
# B6: UCGGUGC (DNA:RNA)
# RNA: B1 RNA with A25U, A26C, A27G, C28G, C29U, A30G
# DNA 1: CAATCTGAATTCCGGTCTCCC
# DNA 2: TGGTGGCTACGACGGGATT
# B7: GUCUAGC (DNA:RNA)
# RNA: B1 RNA with A25G, A26U, A27C, C28U, C29A, A30G
# DNA 1: CAATCTGAATTCCGGTCTCCC
# DNA 2: TGGTGGCTACGACGGGATT
# B8: UCAUCGC (DNA:RNA)
# RNA: B1 RNA with A25U, A26C, C28U, A30G
# DNA 1: CAATCTGAATTCCGGTCTCCC
# DNA 2: TGGTGGCTACGACGGGATT
# B9: GCUCGGU (DNA:RNA)
# RNA: B1 RNA with A25G, A26C, A27U, C29G, A30G, C31U
# DNA 1: CAATCTGAATTCCGGTCTCCC
# DNA 2: TGGTGGCTACGACGGGATT
# Molecular target: T1, RBFOX1 RRM RbFoxmut (Fox-RRM*) (Homo sapiens, UniProt Q9NWB1 109-208, R118D;E147R;N151S;E152T)
# T1 sequence: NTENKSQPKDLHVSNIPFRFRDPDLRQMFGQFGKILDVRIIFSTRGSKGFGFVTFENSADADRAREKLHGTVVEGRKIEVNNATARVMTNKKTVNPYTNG
# Assay: EMSA; HiTS-Eq, 1 nM pool, 10 min; buffer printed only for the single-RNA assays: 10 mM Tris pH 7.5, 150 mM NaCl, 3.4 mM EDTA, 0.001% NP-40, 30 C
# Conditions: tags: His6 N-terminal (pET28a); label: 5' 32P
# Procedure, shortened: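 Relative association constants, normalised to the cognate motif, were derived by comparing read counts of each RNA species with those of the control reaction. The RNA sequenced was the free fraction, separated by 8% native PAGE after a 10 min equilibration in 50 µL of 1 nM 5′-radiolabelled RNA (7 randomized nucleotides) with increasing concentrations of purified wild-type or mutant RbFox RRM.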
row,Binder,binding signal
1,B1,0.0564 KA relative to UGCAUGU
2,B2,0.0734 KA relative to UGCAUGU
3,B3,0.772 KA relative to UGCAUGU
4,B4,0.114 KA relative to UGCAUGU
5,B5,0.0787 KA relative to UGCAUGU
6,B6,0.101 KA relative to UGCAUGU
7,B7,0.0934 KA relative to UGCAUGU
8,B8,0.0909 KA relative to UGCAUGU
9,B9,0.137 KA relative to UGCAUGU

# Reference: paper PMC9911399, “Two distinct binding modes provide the RNA-binding protein RbFox with extraordinary sequence specificity”
